{"source": "PubChem BioAssay AID624296", "about": "(National Center for Advancing Translational Sciences (NCATS), 2012)", "note": "In all, about 350,000 compounds went through this assay and about 9,900 (2.8%) were called active. The inconclusive results got no clear call from the source; some entries with a clear call stand among them for comparison. Calls follow the shape of the dose curve; as a rule, active = well fitted activation curve with a large enough effect; inconclusive = small, poorly fitted or top-dose-only effect; inactive = no such curve, though single readings can be large or run the other way. Potencies of inconclusive entries are left out as doubtful fits. Potency is read from the fitted curve at half-maximal effect; tags tell the direction and shape of the fitted curve."}
{"assay": "A quantitative high throughput screen for small molecules that induce DNA re-replication in MCF 10a normal breast cells; also: nearly all actives have a fitted effect of over 50% in size; as to activity, positive = re-replication: % of control where 0% means no effect.", "conditions": "MCF 10A DNA re-replication, Hoechst nuclear intensity, 48 h; activity, positive = re-replication: at 46.1 µM (top of the series)"}
{"smiles": "CCOc1ccc(C(=O)Nc2ccc(NC(=O)c3ccccc3)c(C)c2)cc1[N+](=O)[O-]", "activity, positive = re-replication": "inactive: -1.39%"}
{"smiles": "CCC(C)Nc1nc2c(c(=O)[nH]c(=O)n2C)n1CCC(C)C", "note": "(stereo not given)", "Potency": "inconclusive [activator, full curve, poor fit]"}
{"smiles": "COc1cc2[nH]c(=S)nc(Nc3ccc(NC(C)=O)cc3)c2cc1OC", "Potency": "inconclusive [activator, partial curve, poor fit]"}
{"smiles": "COc1ccc(C(=O)Nc2ccccc2C(=O)NC(Cc2ccc(O)cc2)C(=O)NNC(=O)c2ccccc2)cc1", "note": "(stereo not given)", "Potency": "inconclusive [activator, partial curve, poor fit]"}
{"smiles": "CCN(CC)S(=O)(=O)c1ccc(O)c(C(=O)OCC(=O)N(C)Cc2ccccc2)c1", "activity, positive = re-replication": "inactive: 4.72%"}
{"smiles": "Cn1c(=O)oc2cc(S(=O)(=O)N3CCN(c4ccccc4F)CC3)ccc21", "activity, positive = re-replication": "inactive: -0.285%"}
{"smiles": "CCCCn1cnc2c(SCc3ccccn3)nc(N)nc21", "activity, positive = re-replication": "inactive: -1.13%"}
{"smiles": "COc1ccc(CC(=O)Nc2ccccc2N2CCOCC2)cc1OC", "Potency": "inconclusive [activator, single point]"}
{"smiles": "COc1ccccc1N1C(=O)C=C(Sc2nc(C)cc(C)n2)C1=O", "activity, positive = re-replication": "inactive: -14.5%"}
{"smiles": "COc1ccc(N2CCN(C(=O)C(Cc3ccccc3)NC(=O)c3ccccc3)CC2)cc1", "note": "(stereo not given)", "Potency": "inconclusive [activator, full curve]"}
{"smiles": "Nc1nc(-c2ccccn2)nc(N)c1Cc1c(F)cccc1Cl", "Potency": "inconclusive [activator, full curve, poor fit]"}
{"smiles": "Cc1[nH]c2ccc3ncccc3c2c1C", "Potency": "inconclusive [activator, partial curve, poor fit]"}
{"smiles": "CCc1nc(SCC(=O)N2CCN(c3ccccc3)CC2)c2oc3ccccc3c2n1", "Potency": "active: 9.2 µM"}
{"smiles": "Nc1c(C(=O)Nc2ccc3c(c2)OCCO3)nnn1CCc1ccccc1", "activity, positive = re-replication": "inactive: 20.2%"}
{"smiles": "CC(=O)c1nn(-c2cccc(Br)c2)cc1C(=O)c1ccccc1", "Potency": "inconclusive [activator, single point]"}
{"smiles": "Cc1c(C(=O)NC2CCCc3ccccc32)oc2ccccc12", "note": "(stereo not given)", "activity, positive = re-replication": "inactive: 12%"}
{"smiles": "CCOC(=O)C1=CN(Cc2cccc(F)c2)S(=O)(=O)N(CC)C1c1cccc(OC)c1", "note": "(stereo not given)", "Potency": "inconclusive [activator, partial curve, poor fit]"}
{"smiles": "COc1ccc(Cl)cc1S(=O)(=O)N1CCCC(C(=O)NCc2ccccn2)C1", "note": "(stereo not given)", "Potency": "inconclusive [activator, partial curve, poor fit]"}
{"smiles": "CCOC(=O)c1cccc2c1-c1ccccc1/C2=N/O", "activity, positive = re-replication": "inactive: 12.3%"}
{"smiles": "O=S(=O)(O)CC(S)CS", "note": "(stereo not given)", "activity, positive = re-replication": "inactive: 3.2%"}
{"smiles": "CC(C)[C@H](N)C(=O)NC[C@H]1CC[C@H](C(=O)N[C@@H](Cc2ccccc2)C(=O)O)CC1", "Potency": "inconclusive [activator, single point]"}
{"smiles": "O=C(CS(=O)c1ccc(C(F)(F)F)cc1[N+](=O)[O-])Oc1ccc(Cl)cc1", "note": "(stereo not given)", "Potency": "active: 13 µM"}
{"smiles": "N#CCN1CCN(CCC(=O)Nc2ccc(OCc3ccccc3)cc2)CC1", "Potency": "inconclusive [activator, partial curve, poor fit]"}
{"smiles": "CNC(=O)C(=O)Nc1nc(C23CC4CC(CC(C4)C2)C3)cs1", "Potency": "inconclusive [activator, full curve, poor fit]"}
{"smiles": "CSc1ccccc1C(=O)NCc1ccccc1C", "activity, positive = re-replication": "inactive: 4.33%"}
{"smiles": "CC(C)NC(=O)N(O)C1N(C(C)C)C(=O)N(Cc2ccc3c(c2)OCO3)C1(C)C", "note": "(stereo not given)", "activity, positive = re-replication": "inactive: 1.11%"}
{"smiles": "CCc1cc(=S)n2c([nH]c3ccccc32)c1C#N", "Potency": "inconclusive [activator, partial curve]"}
{"smiles": "COc1ccc(NC(=O)Nc2nccs2)cc1", "Potency": "inconclusive [activator, partial curve, poor fit]"}
{"smiles": "CCOc1cc(CNc2ccc(N3CCCC3)cc2)cc(Cl)c1OC", "Potency": "inconclusive [activator, single point]"}
{"smiles": "Cn1c(SCc2cc([N+](=O)[O-])cc3c2OCOC3)nnc1-c1ccccn1", "Potency": "inconclusive [activator, single point]"}
{"smiles": "Nc1c(C(=O)O)sc2nc(-c3ccccc3)cc(-c3ccc(F)cc3)c12", "Potency": "inconclusive [activator, single point]"}
{"smiles": "N#Cc1ccccc1COC(=O)CCC(=O)c1cccs1", "activity, positive = re-replication": "inactive: 7.86%"}
{"smiles": "CS(=O)(=O)c1ccc(C(=O)OCC(=O)NC23CC4CC(CC(C4)C2)C3)cc1[N+](=O)[O-]", "Potency": "active: 4.11 µM"}
{"smiles": "CCOC(=O)/C(C#N)=C/c1cccn1-c1ccc(Cl)cc1", "Potency": "inconclusive [activator, partial curve, poor fit]"}
{"smiles": "O=c1oc2ccc3ccccc3c2cc1-c1nnc(-c2ccccc2)o1", "Potency": "active: 1.03 µM"}
{"smiles": "Cc1nn(-c2ccccc2)c(Cl)c1/C=N/Nc1nc2ccccc2[nH]1", "Potency": "active: 7.31 µM"}
{"smiles": "Cc1ccc2cc(C3C(C#N)=C(N)Oc4c3ccc3cccnc43)c(=O)[nH]c2c1", "note": "(stereo not given)", "Potency": "inconclusive [activator, single point]"}
{"smiles": "Cc1nc2ccccc2c(=O)n1/N=C/c1ccc(N(C)C)cc1", "activity, positive = re-replication": "inactive: 10.9%"}
{"smiles": "COc1ccc(-c2cc(C(=O)N3CCCCC3)c3ccccc3n2)cc1OC", "Potency": "inconclusive [activator, partial curve, poor fit]"}
{"smiles": "COc1ccc(OC)c(C2C3CN(C(C)C)CC=C3C(C#N)=C(N)C2(C#N)C#N)c1", "note": "(stereo not given)", "Potency": "inconclusive [activator, partial curve]"}
{"smiles": "O=C(CSc1nc(-c2ccccc2)c(-c2ccccc2)o1)Nc1nncs1", "Potency": "inconclusive [activator, single point]"}
{"smiles": "CC(C)(CO)NCc1c(OCc2ccc(Cl)cc2)ccc2ccccc12", "Potency": "inconclusive [activator, partial curve]"}
{"smiles": "COCCNC(=O)C(C)N(c1ccc(Oc2ccccc2)cc1)S(C)(=O)=O", "note": "(stereo not given)", "Potency": "inconclusive [activator, single point]"}
{"smiles": "CCN(C(=O)COC(=O)c1cc([N+](=O)[O-])ccc1N1CCOCC1)C1CCCCC1", "Potency": "inconclusive [activator, single point]"}
{"smiles": "O=c1[nH]c(CCl)nc2cc(-c3ccc(Cl)cc3)sc12", "Potency": "inconclusive [activator, single point]"}
